# Some of the results follow. Single values are uncertain, as repeats are few or missing.
# System: IST-MEL1
# Assay: cell count relative to DMSO control; melanoma cells; higher = more viable cells
# Details: library dose: low library concentration; 72 h
# 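Further: cell number obtained by counting DAPI-stained nuclei in high-throughput microscope images with image analysis software, screen run in 1,536-well plates.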
row,Compound,cell count [%]
1,"C[C@@H](Oc1cc(-c2cnn(C3CCNCC3)c2)cnc1N)c1c(Cl)ccc(F)c1Cl [Crizotinib] + O=c1cc(-c2cccc3c2Sc2ccccc2S3)oc(N2CCOCC2)c1 [KU55933] (first compound 0.2 µM, partner dose 1 µM)",99.2
2,"C[C@@H](Oc1cc(-c2cnn(C3CCNCC3)c2)cnc1N)c1c(Cl)ccc(F)c1Cl [Crizotinib] + COC(=O)c1sccc1S(=O)(=O)Nc1ccc(Nc2ccccc2)cc1OC [GSK0660] (first compound 0.2 µM, partner dose 1 µM)",94.5
3,"CS(=O)(=O)CCNCc1ccc(-c2ccc3ncnc(Nc4ccc(OCc5cccc(F)c5)c(Cl)c4)c3c2)o1 [lapatinib] + O=C(O)C(=O)Nc1sc2c(c1C(=O)O)CCNC2 [TCS401] (first compound 0.8 µM, partner dose 1.66667 µM)",103

# System: LB2518-MEL
# Assay: as above
# Details: library dose: low library concentration; 72 h
row,Compound,cell count [%]
1,"C=CCNC1=C2C[C@@H](C)C[C@H](OC)[C@H](O)[C@@H](C)/C=C(\C)[C@H](OC(N)=O)[C@@H](OC)/C=C\C=C(/C)C(=O)NC(=CC1=O)C2=O [Tanespimycin] + Cn1cc(/C=C2\C(=O)Nc3cccnc32)c2ccccc21 [GW441756] (first compound 0.002 µM, partner dose 0.4 µM)",105
2,"CNC(=O)c1cc(Oc2ccc(NC(=O)Nc3ccc(Cl)c(C(F)(F)F)c3)cc2)ccn1 [sorafenib] + c1cc(-c2cnn3cc(-c4ccc(OCCN5CCCCC5)cc4)cnc23)ccn1 [Dorsomorphin] (first compound 0.4 µM, partner dose 0.4 µM)",102
3,"C[C@@H](Oc1cc(-c2cnn(C3CCNCC3)c2)cnc1N)c1c(Cl)ccc(F)c1Cl [Crizotinib] + COc1cc(N2CCC(N3CCN(C)CC3)CC2)ccc1Nc1ncc(Cl)c(Nc2ccccc2S(=O)(=O)C(C)C)n1 [NVP-TAE684] (first compound 0.2 µM, partner dose 0.08 µM)",132
4,"CNC(=O)c1cc(Oc2ccc(NC(=O)Nc3ccc(Cl)c(C(F)(F)F)c3)cc2)ccn1 [sorafenib] + CCCCCCCCCCCC1=C(O)C(=O)C=C(O)C1=O [Embelin] (first compound 0.4 µM, partner dose 1.2 µM)",137
5,"CS(=O)(=O)CCNCc1ccc(-c2ccc3ncnc(Nc4ccc(OCc5cccc(F)c5)c(Cl)c4)c3c2)o1 [lapatinib] + O=C(Nc1ccccc1)c1cc([N+](=O)[O-])ccc1Cl [GW9662] (first compound 0.8 µM, partner dose 2 µM)",108
6,"CS(=O)(=O)CCNCc1ccc(-c2ccc3ncnc(Nc4ccc(OCc5cccc(F)c5)c(Cl)c4)c3c2)o1 [lapatinib] + COc1ccc2c(c1)CCC1C2CCC2(C)C(NCCCCCCN3C(=O)C=CC3=O)CCC12 [U73122] (first compound 0.8 µM, partner dose 0.4 µM)",99.2
7,"CNC(=O)c1cc(Oc2ccc(NC(=O)Nc3ccc(Cl)c(C(F)(F)F)c3)cc2)ccn1 [sorafenib] + O=C(Nc1ccccc1)c1cc([N+](=O)[O-])ccc1Cl [GW9662] (first compound 0.4 µM, partner dose 2 µM)",109
8,"CS(=O)(=O)CCNCc1ccc(-c2ccc3ncnc(Nc4ccc(OCc5cccc(F)c5)c(Cl)c4)c3c2)o1 [lapatinib] + COc1ccc(-c2ccc3c(N4CCOCC4)nc(N4C[C@@H](C)O[C@@H](C)C4)nc3n2)cc1CO [KU0063794] (first compound 0.8 µM, partner dose 0.02 µM)",98.4
9,"CS(=O)(=O)CCNCc1ccc(-c2ccc3ncnc(Nc4ccc(OCc5cccc(F)c5)c(Cl)c4)c3c2)o1 [lapatinib] + O=C1NC(=O)/C(=C/c2ccc(-c3ccc(F)cc3O)o2)S1 [AS252424] (first compound 0.8 µM, partner dose 1 µM)",98.9
10,"CNC(=O)c1cc(Oc2ccc(NC(=O)Nc3ccc(Cl)c(C(F)(F)F)c3)cc2)ccn1 [sorafenib] + COc1cc(N2CCC(N3CCN(C)CC3)CC2)ccc1Nc1ncc(Cl)c(Nc2ccccc2S(=O)(=O)C(C)C)n1 [NVP-TAE684] (first compound 0.4 µM, partner dose 0.08 µM)",105
11,"CN1CCN(c2ccc3nc(-c4c(N)c5c(F)cccc5[nH]c4=O)[nH]c3c2)CC1 [Dovitinib] + COc1cc2ncnc(Nc3ccc(Oc4ccccc4)cc3)c2cc1OC [SrcI1] (first compound 0.1 µM, partner dose 2 µM)",93

# Reference: the supplement of paper PMC4604168 (melanoma cell lines)
